Data as given in US12280114B2, “Extraction of plant source “medicinal soup” and manual preparation of “herbal medicine” and related products” (BEIJING BAISHIHEKANG PHARMACEUTICAL TECHNOLOGY (BSJPHARMA) …, priority 2018, dated 2025).

Key:
[1] = function annotation in words, no test described, cited from earlier work
MRC-5 cells = assay: RT-qPCR detection of nucleic acid delivered by lipid into MRC-5 cells; type: cell-based, human; conditions: for delivery of single-stranded RNA into MRC-5 cells (RT-qPCR): single lipid, HJT-sRNA-m7, boiling method
A549 cells [2] = assay: RT-qPCR detection of nucleic acid delivered by lipid into A549 cells; type: cell-based, human; conditions: boiling method; for delivery of single-stranded RNA into A549 cells (RT-qPCR): single lipid, HJT-sRNA-m7
A549 cells [3] = assay: Digital PCR (ddPCR) detection of nucleic acid delivery by lipid into A549 cells; type: cell-based, human; conditions: single lipid; boiling or reverse evaporation method
Experimental: Referring to the QX200 Droplet Reader and QuantaSoft Software manual for the protocols, the results were analyzed using QuantaSoft software.
2.2 Experimental method: total RNA was collected and extracted by TRIzol lysis buffer according to the above method, and reverse transcribed to cDNA using High capacity cRNA Reverse Transcription Kit, and the cDNA from different groups was subjected to digital PCR reaction.
2.2 Experimental method: Total RNA was collected and extracted by TRIzol lysis buffer according to the above method, and reverse transcribed to cDNA using TaqMan™ MicroRNA Reverse Transcription KitHigh, and the cDNA from different groups was subjected to digital PCR reaction.
2.2 Experimental method: Total RNA was collected and extracted by TRIzol lysis buffer according to the above method, and reversed to cDNA using High capacity CRNA Reverse Transcription Kit, and the cDNA from different groups was subjected to digital PCR reaction.

A549 cells [4] = assay: Confocal fluorescence microscopy of lipid-delivered nucleic acid in A549 cells; type: cell-based, human; conditions: boiling method; 6 hours
Experimental: (§1) […] Then the mixture was dropped into A549 cells, and after 6 hours of co-incubation, the samples were washed three times with PBS, fixed with 4% paraformaldehyde, washed three times with PBS, stained with Alexa Fluor® 488 phalloidin for 30 min, washed 3 times with PBS, and stained with DAPI for 5 min, washed with PBS, and then sealed.
as §1, with “Then,” for “Then”, “PBS washed,” for “washed with PBS,”

[5] = In vivo delivery of small RNA into mouse blood, stomach, small intestine and liver via gavage (RT-qPCR); conditions: 12 hours; for delivery of sRNA single-stranded nucleic acid into mouse blood via oral administration: Example 11, 10 μL single lipid + sRNA 1 nmol each, heating method
A549 cells [6] = assay: Flow cytometry detection of nucleic acid delivery by lipid into A549 cells; type: cell-based, human; conditions: boiling method, 6 hours
Experimental: Experimental methods: PGY-sRNA-6-FAM was dissolved in 100 μl water, mixed with 4 μl lipid, and prepared by boiling method. Then the mixture was dropped into A549 cells, and after 6 hours of co-incubation, the samples were collected for detection as follows: firstly wash three times with PBS, then digest with trypsin for 3 minutes and remove trypsin, wash with PBS again and then blow down the cells. The detection was performed using Accuri® C6 instrument.
Experimental Method: PGY-sRNA-6-FAM was dissolved in 100 μl water, and mixed with 4 μl lipid, and prepared into lipid-sRNA mixture by boiling method. Then, the mixture was dropped into A549 cells, and after 6 hours of co-incubation, the samples were collected and washed three times with PBS, then digested with trypsin into single cells, washed with re-suspended with PBS and then blown down for Accuri® C6 instrument detection.
Experimental Method: FAM-sRNA was dissolved in 100 μl water, and mixed with 4 μl lipid, prepared by boiling method. Then, the lipid-sRNA mixture was dropped into A549 cells, and after 6 hours of co-incubation, the samples were collected and washed three times with PBS, then digested into single cells with trypsin, re-suspended with PBS and then used Accuri® C6 instrument to detect relative entry amount.

[7] = functional small molecules identified in HJT decoctosome (Table 3)

Structure (SMILES): NC(=O)Cc1ccccc1 [2-Phenylacetamide]
- Description of function ([1]; functional small molecules identified in PGY decoctosome (Table 5)): Antiarrhythmic

Structure (SMILES): CN1[C@@H]2CCC[C@H]1CC(NC(=O)c1nn(C)c3c(O)cccc13)C2 (some centres unmarked) [7-hydroxygranisetron]
- Description of function [1, 7]: Anti-tumor

Structure (SMILES): CC/C=C\C/C=C\C/C=C\CCCCCCCC(=O)OC[C@@H](O)COP(=O)(O)OCC[N+](C)(C)C [Lipid No. 37, LPC(18:3)]
- delivery of single-stranded RNA into MRC-5 cells (RT-qPCR) (MRC-5 cells): Delivered Single-Stranded RNA into A549 and MRC-5 Cells
- delivery of single-stranded RNA into A549 cells (RT-qPCR) (A549 cells [2]): Delivered Single-Stranded RNA into A549 and MRC-5 Cells

Structure (SMILES): CCCCCC/C=C\CCCCCCCCCC(=O)O[C@H](COC(=O)CCCCCCC/C=C\CCCCCC)COP(=O)(O)OCCN [Lipid No. 39, PE(16:1-18:1)]
- delivery of HJT-sRNA-m7 dsRNA into A549 cells (ddPCR) (A549 cells [3]): could effectively deliver HJT-sRNA-m7 dsRNA into A549 cells

Structure (SMILES): CCCCCCCCCCCCCCCC(=O)OC[C@@H](O)COP(=O)([O-])OCC[N+](C)(C)C [LysoPC(16:0)]
- Description of function [1, 7]: Anti-fibrosis

Structure (SMILES): CCCCCC/C=C\CCCCCCCC(=O)O[C@H](COC(=O)CCCCCCCCCCCCCCC)COP(=O)(O)OCCN [lipid No. 38, PE(16:0/16:1)]
- delivery effect of lipid, times that of RNAiMAX (RT-qPCR) (MRC-5 cells; double-stranded RNA, MRC-5 cells, heating method): about twice
- delivery of single-stranded RNA into MRC-5 cells (RT-qPCR) (MRC-5 cells): the efficiency of delivery was much higher than that of RNAiMAX
- delivery of single-stranded RNA into A549 cells (RT-qPCR) (A549 cells [2]): the efficiency of delivery was much higher than that of RNAiMAX
- entry of PGY-sRNA-6-Cy3 into A549 cells (confocal microscopy) (A549 cells [4]): could effectively deliver double-stranded nucleic acid into A549 cells
- delivery of HJT-sRNA-m7 dsRNA into A549 cells (ddPCR) (A549 cells [3]): could effectively deliver HJT-sRNA-m7 dsRNA into A549 cells
- delivery of sRNA single-stranded nucleic acid into mouse blood via oral administration [5]: the delivery effect was better than POPC and Lipofectamine RNAiMAX

Structure (SMILES): CCCCCCCCCCCCCCCCCCC[C@@H](O)[C@@H](N)CO [lipid No. 41, Sphinganine (d22:0)]
- delivery of sRNA single-stranded nucleic acid into the mouse liver via oral administration ([5]; Example 11-1): could effectively deliver sRNA single-stranded nucleic acid into the mouse liver
- delivery of sRNA single-stranded nucleic acid into the mouse small intestine via oral administration ([5]; Example 11-1): could effectively deliver sRNA single-stranded nucleic acid into the mouse small intestine
- delivery of sRNA single-stranded nucleic acid into the mouse stomach via oral administration ([5]; Example 11-1): could effectively deliver sRNA single-stranded nucleic acid into the mouse stomach
- delivery of sRNA single-stranded nucleic acid into mouse blood via oral administration [5]: the delivery effect was better than POPC and Lipofectamine RNAiMAX

Structure (SMILES): CCCCCCCC/C=C\CCCCCCCCCCCCCC(=O)O[C@H](COC(=O)CCCCCCCCCCCCCC)COP(=O)(O)OCCN [lipid No. 64, PE(15:0/24:1 (15Z))]
- delivery effect of lipid, times that of RNAiMAX (RT-qPCR) (A549 cells [2]; HJT-sRNA-m7 double-stranded RNA, A549 cells): about 3
- efficiency of delivering PGY-sRNA-6 single-stranded RNA relative to positive control RNAiMAX (flow cytometry) (A549 cells [6]): ½
- entry of PGY-sRNA-6-Cy3 into A549 cells (confocal microscopy) (A549 cells [4]): could effectively deliver single-stranded RNA into A549 cells
- delivery of sRNA single-stranded nucleic acid into mouse blood via oral administration [5]: the delivery effect was better than POPC and Lipofectamine RNAiMAX

Where two headings read alike, the source gives them in different places.
